Results taken from a collection of fitness landscapes (doi:10.1038/s41467-024-54723-y).
Whole data set: some 18,000 sequences, median “TetR repression strength (sort-seq, GFP reporter)” near 0.23, cut for the highest 2% near 0.68. The list shows a part of the results.

Each sequence was assayed against TetR (class B, Tn10) (UniProt P04483) (assay: TetR repression strength (sort-seq, GFP reporter) (relative to tetO2 = 1); higher = stronger repression). Details: E. coli.
Chain of UniProt P04483 (P04483 whole entry): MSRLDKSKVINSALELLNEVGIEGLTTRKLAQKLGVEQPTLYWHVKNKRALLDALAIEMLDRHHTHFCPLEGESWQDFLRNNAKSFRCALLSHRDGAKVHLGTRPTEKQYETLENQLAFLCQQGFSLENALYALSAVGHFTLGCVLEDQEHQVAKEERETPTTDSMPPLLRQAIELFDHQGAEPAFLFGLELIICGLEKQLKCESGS
In short: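 In LB with 50 µg/mL chloramphenicol, E. coli SIG10-MAX holding a low-copy library with eight randomized operator positions between a constitutive promoter and sfGFP, plus constitutive TetR, grew for 5 h at 37 °C. FACS then sorted 10^6 cells into 13 fluorescence bins for Illumina sequencing of each bin. Repression strength equals the top bin index plus one less the read-weighted mean bin, normalized to the unaltered operator. Values from three independent transformations were averaged when reads were ≥30 in every replicate and the CV was ≤0.5.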
With TCCCGTATAGTGCAAGAGA the TetR repression strength was 0.464.
TCCCCGTGAGTCTGGGAGA gave a TetR repression strength of 0.144.
Work on TCCCTGTCAGTAATCGAGA yielded a TetR repression strength of 0.535.
TCCCTTGAAGTGGTGGAGA showed a TetR repression strength of 0.202.
TCCCTGATAGTTACGGAGA was tested, and the TetR repression strength was 0.412.
Sequence TCCCGGCTAGTGCGCGAGA has a TetR repression strength of 0.241.
With TCCCATGTAGTGTCGGAGA the TetR repression strength was 0.301.
In the case of TCCCGTGCAGTCCTCGAGA, the TetR repression strength is reported as 0.171.
In the case of TCCCAACTAGTAAATGAGA, the TetR repression strength is reported as 0.567.
TCCCGGCTAGTCCTGGAGA gave a TetR repression strength of 0.234.
For TCCCGGTAAGTTGAGGAGA, the TetR repression strength was 0.661.
In the case of TCCCCGCGAGTGAGTGAGA, the TetR repression strength is reported as 0.269.
In the case of TCCCTGGCAGTGCGTGAGA, the TetR repression strength is reported as 0.16.
In the case of TCCCGAGTAGTTACAGAGA, the TetR repression strength is reported as 0.136.
Work on TCCCTAACAGTGACAGAGA yielded a TetR repression strength of 0.559.
In the case of TCCCTACTAGTGTTGGAGA, the TetR repression strength is reported as 0.217.
TCCCCGTAAGTTAGGGAGA showed a TetR repression strength of 0.166.
TCCCGTGAAGTCCGCGAGA gave a TetR repression strength of 0.2.
For TCCCCGACAGTATAGGAGA, the TetR repression strength was 0.143.
With TCCCTGTTAGTCCTCGAGA the TetR repression strength was 0.431.
TCCCGCCGAGTAGTGGAGA showed a TetR repression strength of 0.27.
In the case of TCCCCCCAAGTAGGTGAGA, the TetR repression strength is reported as 0.1.
Work on TCCCGGGTAGTGTGTGAGA yielded a TetR repression strength of 0.224.
With TCCCAGCGAGTGTTTGAGA the TetR repression strength was 0.257.
For TCCCGATTAGTACACGAGA, the TetR repression strength was 0.24.
TCCCGGTTAGTGCAAGAGA showed a TetR repression strength of 0.415.
TCCCGTAGAGTGAATGAGA showed a TetR repression strength of 0.217.
TCCCGGCCAGTACCGGAGA was tested, and the TetR repression strength was 0.222.
Sequence TCCCGCGGAGTGTAGGAGA has a TetR repression strength of 0.415.
Work on TCCCAGGCAGTCGGCGAGA yielded a TetR repression strength of 0.25.
Work on TCCCTGTTAGTGGCGGAGA yielded a TetR repression strength of 0.2.
Work on TCCCTGCGAGTCGAGGAGA yielded a TetR repression strength of 0.253.
TCCCTGTGAGTGGGCGAGA was tested, and the TetR repression strength was 0.329.
Work on TCCCGCCTAGTATCGGAGA yielded a TetR repression strength of 0.095.
With TCCCGAGTAGTGGGCGAGA the TetR repression strength was 0.186.
TCCCTGTAAGTTGACGAGA showed a TetR repression strength of 0.1.
With TCCCATGTAGTTATGGAGA the TetR repression strength was 0.295.
TCCCGCGGAGTCCTCGAGA gave a TetR repression strength of 0.294.
In the case of TCCCACTTAGTCGTAGAGA, the TetR repression strength is reported as 0.125.
For TCCCAACTAGTCCTGGAGA, the TetR repression strength was 0.278.
With TCCCCACCAGTGCTCGAGA the TetR repression strength was 0.491.
For TCCCGAGCAGTGGAAGAGA, the TetR repression strength was 0.252.
Sequence TCCCCCAGAGTATCGGAGA has a TetR repression strength of 0.0944.
For TCCCTCTAAGTTGTAGAGA, the TetR repression strength was 0.256.
Sequence TCCCATGAAGTCTGAGAGA has a TetR repression strength of 0.226.
In the case of TCCCGGGTAGTTGTGGAGA, the TetR repression strength is reported as 0.224.
Sequence TCCCACCCAGTGACAGAGA has a TetR repression strength of 0.585.
Work on TCCCCTGTAGTGTGCGAGA yielded a TetR repression strength of 0.297.
With TCCCTTAGAGTCGCAGAGA the TetR repression strength was 0.265.
With TCCCCAGGAGTGAAGGAGA the TetR repression strength was 0.118.
TCCCGGGTAGTTTTTGAGA gave a TetR repression strength of 0.143.
TCCCTGCGAGTTAAAGAGA was tested, and the TetR repression strength was 0.128.
In the case of TCCCATCTAGTCTTGGAGA, the TetR repression strength is reported as 0.128.
TCCCAGGGAGTGAGTGAGA was tested, and the TetR repression strength was 0.18.
Sequence TCCCACTGAGTACTTGAGA has a TetR repression strength of 0.418.
TCCCGCCGAGTGGTTGAGA gave a TetR repression strength of 0.235.
Work on TCCCTCTGAGTAAAGGAGA yielded a TetR repression strength of 0.118.
TCCCGTGTAGTGGTAGAGA gave a TetR repression strength of 0.202.
TCCCCGTCAGTGGAAGAGA showed a TetR repression strength of 0.104.
TCCCTTATAGTGTAGGAGA was tested, and the TetR repression strength was 0.0398.
With TCCCGCGGAGTACCGGAGA the TetR repression strength was 0.217.
In the case of TCCCTGGCAGTATGGGAGA, the TetR repression strength is reported as 0.311.
With TCCCGTACAGTGTGGGAGA the TetR repression strength was 0.226.
TCCCATTAAGTGAACGAGA gave a TetR repression strength of 0.253.
TCCCTGTTAGTCGGGGAGA gave a TetR repression strength of 0.242.
In the case of TCCCGACCAGTGGGAGAGA, the TetR repression strength is reported as 0.201.
TCCCTGACAGTCCAAGAGA was tested, and the TetR repression strength was 0.176.
In the case of TCCCGCATAGTGCGTGAGA, the TetR repression strength is reported as 0.188.
With TCCCGGCCAGTGCTAGAGA the TetR repression strength was 0.327.
Sequence TCCCAAGAAGTCGACGAGA has a TetR repression strength of 0.35.
TCCCTTGGAGTGGCCGAGA showed a TetR repression strength of 0.277.
For TCCCATGAAGTAAAGGAGA, the TetR repression strength was 0.242.
TCCCTGTCAGTTGGAGAGA gave a TetR repression strength of 0.36.
With TCCCTGCTAGTTATTGAGA the TetR repression strength was 0.38.
TCCCAAGGAGTCGTAGAGA was tested, and the TetR repression strength was 0.204.
TCCCGGTAAGTCGTCGAGA was tested, and the TetR repression strength was 0.302.
TCCCCTGCAGTGTACGAGA showed a TetR repression strength of 0.231.
In the case of TCCCGGAAAGTGATTGAGA, the TetR repression strength is reported as 0.258.
TCCCCCCGAGTACGTGAGA showed a TetR repression strength of 0.839.
TCCCTGGGAGTGGAAGAGA gave a TetR repression strength of 0.112.
TCCCGAACAGTAACGGAGA showed a TetR repression strength of 0.571.
With TCCCTGGAAGTGGCGGAGA the TetR repression strength was 0.0741.
Sequence TCCCTCTGAGTGTTAGAGA has a TetR repression strength of 0.395.
TCCCGCGTAGTCAACGAGA showed a TetR repression strength of 0.399.
TCCCAGTGAGTGGAGGAGA was tested, and the TetR repression strength was 0.183.
For TCCCTCGGAGTGCCTGAGA, the TetR repression strength was 0.238.
With TCCCGATGAGTAGCGGAGA the TetR repression strength was 0.353.
For TCCCCAATAGTAAACGAGA, the TetR repression strength was 0.401.
In the case of TCCCTTCCAGTTATAGAGA, the TetR repression strength is reported as 0.511.
In the case of TCCCAACTAGTGAGAGAGA, the TetR repression strength is reported as 0.104.
Sequence TCCCAGCCAGTGGTGGAGA has a TetR repression strength of 0.447.
Work on TCCCCTACAGTACACGAGA yielded a TetR repression strength of 0.31.
With TCCCATCGAGTGAGGGAGA the TetR repression strength was 0.381.
With TCCCGGGTAGTCGTTGAGA the TetR repression strength was 0.495.
TCCCAAGGAGTTTGCGAGA was tested, and the TetR repression strength was 0.
Work on TCCCACTTAGTTGCTGAGA yielded a TetR repression strength of 0.19.
TCCCCGTAAGTAAGTGAGA was tested, and the TetR repression strength was 0.199.
In the case of TCCCTTTAAGTCTCTGAGA, the TetR repression strength is reported as 0.249.
For TCCCGTCCAGTGTCTGAGA, the TetR repression strength was 0.401.
For TCCCAATTAGTTCGTGAGA, the TetR repression strength was 0.12.
Work on TCCCGAGAAGTACGTGAGA yielded a TetR repression strength of 0.237.
With TCCCGAGAAGTAAGCGAGA the TetR repression strength was 0.255.
Sequence TCCCCCGGAGTTATAGAGA has a TetR repression strength of 0.416.
TCCCTGCGAGTGAGCGAGA gave a TetR repression strength of 0.134.
TCCCAGGGAGTTCATGAGA showed a TetR repression strength of 0.15.
In the case of TCCCTGATAGTACTCGAGA, the TetR repression strength is reported as 0.278.
For TCCCGGACAGTTTCAGAGA, the TetR repression strength was 0.13.
For TCCCTGCCAGTTGGGGAGA, the TetR repression strength was 0.388.
With TCCCGCAGAGTAGGAGAGA the TetR repression strength was 0.169.
TCCCAGTTAGTATAAGAGA was tested, and the TetR repression strength was 0.354.
With TCCCGCATAGTGAGGGAGA the TetR repression strength was 0.232.
Sequence TCCCAAGCAGTTGTCGAGA has a TetR repression strength of 0.299.
With TCCCGAACAGTGCCGGAGA the TetR repression strength was 0.476.
Sequence TCCCAGTGAGTAGGAGAGA has a TetR repression strength of 0.0995.
Sequence TCCCTTGTAGTGCCTGAGA has a TetR repression strength of 0.181.
With TCCCGGTCAGTAGGGGAGA the TetR repression strength was 0.392.
TCCCATACAGTCCGCGAGA showed a TetR repression strength of 0.364.
In the case of TCCCATCCAGTGTACGAGA, the TetR repression strength is reported as 0.262.
TCCCGCAAAGTCCCTGAGA gave a TetR repression strength of 0.363.
For TCCCTGTTAGTGCAAGAGA, the TetR repression strength was 0.553.
Work on TCCCAGTAAGTCGGGGAGA yielded a TetR repression strength of 0.698.
For TCCCATCCAGTAATTGAGA, the TetR repression strength was 0.516.
TCCCTTACAGTTGGAGAGA gave a TetR repression strength of 0.0566.
With TCCCATCCAGTTCGAGAGA the TetR repression strength was 0.32.
Work on TCCCAGATAGTCGGAGAGA yielded a TetR repression strength of 0.199.
TCCCTTATAGTTATGGAGA was tested, and the TetR repression strength was 0.0518.
For TCCCCCCGAGTAAGTGAGA, the TetR repression strength was 0.278.
TCCCACCAAGTGGAAGAGA was tested, and the TetR repression strength was 0.35.
With TCCCGGCAAGTGCAGGAGA the TetR repression strength was 0.0479.
With TCCCTGGCAGTGGGTGAGA the TetR repression strength was 0.291.
